According to the supplement of paper PMC11417369:
± gives the standard deviation of the averaged measurements. The list shows a part of the results.

What follows are sequences tested on PfAP2-G AP2 domain (GST-tagged) (assay: gcPBM binding intensity (ln(normalized median fluorescence intensity)); higher = stronger DNA binding).
Procedure, shortened: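 Binding of GST-tagged P. falciparum DNA-binding domains, expressed in E. coli and used at about 25 μg on average, was carried out for 1 h in 1× PBS containing 1% milk, 0.2 mg/ml BSA, 0.5% salmon testes DNA and 0.03% Triton X-100. The target was an Agilent 4 × 180k array of primer-extended double-stranded 36-bp intergenic genomic probes plus negative controls, read with Alexa488 anti-GST antibody at 488 nm. Binding intensity is the highest Masliner-normalised natural-log median intensity across replicate spots of either probe orientation.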

Sequence	gcPBM binding intensity (ln)
TTTTTCCCCCTTTTTTTGATTTTTATCTTAATTCTA [TGCATGCA_negctrl_site287]	9.91 ± 0.31
TATATATATAGACACACACACATATAAATAAATAAA [CACACA_site444]	10.1 ± 0.13
TTATTTATTTTCATATGTACTTATTTATAGAGGTTG [XGTACX_site5599]	11.4 ± 0.89
CATACATACATACATACACACATATATATATATATG [CACACA_site1995]	10.6 ± 0.28
TTTTTTAAAATAATAGGTACACATAAAAAAAAAAAA [XGTACX_site2517]	11.2 ± 0.89
AATGATGTTGTATTGTTTCGATATAACATCTAATTT [GTGCAC_negctrl_site309]	9.83 ± 0.24
AAGGATTATTTTAATCGTACATGTGTAAATAATATA [XGTACX_site6177]	11 ± 0.61
TTTTTTCATTTTTTATTTTTTTATTTTTTACATATT [GTGCAC_negctrl_site137]	9.56 ± 0.16
TACTTTTTAGGAAAGTGTACAAGCATATAAGGAATA [XGTACX_site2834]	11.1 ± 0.6
TTAAAAAAATATTGAAGTACACACATTATAAACTTT [XGTACX_site3548]	11.4 ± 0.84
ATATTTTGTTATGTAGATGTTGGTAGGAATTTTGGT [CACACA_negctrl_site1104]	10.1 ± 0.2
AATAAATAAATAAATAAAACAAAGGGATTACATACA [TGCATGCA_negctrl_site513]	9.84 ± 0.11
CACAACATATATATATATATATATATATATATGTGT [CACACA_negctrl_site28]	11.6 ± 1.1
AACATAATCTCATATACACACAAAAATATTGAAATA [CACACA_site7085]	10.1 ± 0.23
ACAAGTTTATTTGTTGCACACATATAAGTAGAGAAA [CACACA_site8994]	10.3 ± 0.2
AAAAAAAAAAAACACACACACATAGACCTCCAATAG [CACACA_site3562]	10.4 ± 0.18
GCTCATATGACAACAACACACAAAAAAATAAAATGA [CACACA_site714]	10.2 ± 0.28
ATATAATAAAATTAATGTACATATATGTATTATATA [XGTACX_site3283]	11.2 ± 0.71
TTTCATATATATGAAACACACAAAGGAAAAAAAATT [CACACA_site4144]	10.3 ± 0.12
TACTATAACAGACATACACACAAAAAAAAAAAAAAA [CACACA_site538]	9.94 ± 0.3
TAATAATATATTTGTAGTACACAATTTTTTATAACT [XGTACX_site3951]	11.6 ± 0.89
TGTTATTAAAATATAGTGCATAATTAACCATTATAA [GTGCAC_site9594]	9.96 ± 0.071
CACACGCACGGACACACACACATATAAAATCTATAT [CACACA_site6428]	11.2 ± 0.71
TACTTATATACACATGTATATTATATATATAATATA [XGTACX_negctrl_site335]	10.3 ± 0.36
GAGAGGATAGTTCACAGTACTCAGTAACTCTACGGA [XGTACX_site4875]	10.8 ± 0.44
ATTTTTTTTTTTTTTTTTTTTTTTTTTTAATCTGGA [CACACA_negctrl_site1347]	9.68 ± 0.16
ATATTTAACAGGTTAAAAATATAAACAAATAAATAA [CACACA_negctrl_site907]	10 ± 0.13
AACTCATAGCGGTGTGCACACAAAAAATTAAAAAAA [CACACA_site3033]	10.9 ± 0.68

Sequence	gcPBM binding intensity (ln)
AATGTCCTTATTTGCACACACACATATAAGAAATTT [CACACA_site3186]	10.9 ± 0.72
TATAATAAATCATATGCATGTTGAAAAAAAAAAAAA [TGCATGCA_site923]	9.74 ± 0.31
ATTTGAGAGTTAACAAAATATTTGGCCATCTTTTAT [XGTACX_negctrl_site447]	10.01 ± 0.064
ATTATATATATAAAGTGTACAAAAAAAAAAAAAAAA [XGTACX_site3134]	11.2 ± 1.1
AATCAATATAAATAAAATTTTTAATTTTAACCCTAA [GTGCAC_negctrl_site266]	9.675 ± 0.049
TCATAAATGAAACACACACACACATCTGGATACCCC [CACACA_site3332]	10.7 ± 0.49
TAAACATATAAAAAGGGTACACATTAAACATAGTAT [XGTACX_site7096]	11.3 ± 0.79
AAATCATTCCTTTATTCACACAATATCTGTATTTAT [CACACA_site4407]	10.05 ± 0.021
TTGTATTTACACGATCAACCAAATGGTATATAAATA [GTGCAC_negctrl_site167]	10.2 ± 0.2
ATATGTAGTTTTTACCTAATAAAAAAAAAAAAAAAA [CACACA_negctrl_site672]	9.78 ± 0.45
ATGCACATTTATAAAAGTACATGTATGTAATATGTT [XGTACX_site830]	11.2 ± 0.69
ATTTAAATGAAAAAATGTACAAAAAGATTTAAACTC [XGTACX_site1489]	11 ± 0.46
AAAACAAATTAAAATCGTACAATTATAATGTTAATG [XGTACX_site180]	10.9 ± 0.4
TATAAAATAAAAATTATATATTTTAAATGGATACAA [TGCATGCA_negctrl_site284]	9.89 ± 0.099
ATAGCTAAGATAGCTTGTACATATATTTACATATAT [XGTACX_site3694]	10.8 ± 0.52
TCCATATGCAAACTGGTGCACAAGTAGCTTTTATAT	10.4 ± 0.48
TAATTCCATAAGTAAACACACAAATGCCAAAATTTT [CACACA_site3205]	10.04 ± 0.035
GTGCGTGCGTGTACTTAACACACATAATATGTATTT [CACACA_site8336]	11.4 ± 1
TTAAAGGGAATGTATACACACGTTTCTCTATGTTAT [CACACA_site4793]	9.97 ± 0.099
TTAAGCCGCAATATGGGTACATAGGAAGAAGGGGAA [XGTACX_site8397]	11.3 ± 1
ATATATAAAAATATTTGTACATATAGTTATATTTAT [XGTACX_site6114]	10.8 ± 0.54
TTTCTTTTTCTAGTTATTTTTACTTATCCCTAATTT [TGCATGCA_negctrl_site460]	9.84 ± 0.27
TTATAATTAAGATATAATCAATAATAACAAATGAAC [CACACA_negctrl_site1690]	9.84 ± 0.014
TTCTTTGCTTCTGTTTCACACATTTTTAAAATAAGC [CACACA_site4741]	10.3 ± 0.15
CAAAAAAGGTCCCGGAGTACATATATAATTTTTTTT [XGTACX_site458]	11.6 ± 0.83
GAGATGACATTACACAGTACCCAGGAAATCTACGGA [XGTACX_site4931]	10.8 ± 0.47
TATATATTGTTATATACACACATGTATATAAAAAAT [CACACA_site3221]	10 ± 0.21
